Experimental data reported in the supplement of paper PMC11417369.
± gives the standard deviation of the averaged measurements. The list shows a part of the results.

tested on: PfAP2-I AP2 domain 3 (GST-tagged); experiment: gcPBM binding intensity (ln(normalized median fluorescence intensity)); higher = stronger DNA binding
Summary of the method: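 Binding intensity is defined as the maximum Masliner-normalised natural-log median intensity across replicate spots for either probe orientation. It was measured on an Agilent 4 × 180k array of primer-extended double-stranded 36-bp intergenic genomic probes and negative controls, to which GST-tagged P. falciparum DNA-binding domains made in E. coli were applied for 1 h in 1× PBS with 1% milk, 0.2 mg/ml BSA, 0.5% salmon testes DNA and 0.03% Triton X-100. Detection was by Alexa488 anti-GST antibody and scanning at 488 nm.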

Sequence	gcPBM binding intensity (ln)
TTAGATATGTGTAAGGGTACAAAATACTTTACATTT [XGTACX_site8204]	7.69 ± 0.73
CTTCAATATATTCTTACACACTTAAAAAAAAAAATA [CACACA_site4287]	7.64 ± 0.5
CTATTATTTTTAAATTGTACTATAACAAAATGTATA [XGTACX_site3916]	7.64 ± 0.29
AAATAAATCTATAATACACACAAAAATATAAAATGC [CACACA_site7700]	8.01 ± 0.67
TTTATATTTATATAAATATAATATATATGAATTATA [XGTACX_negctrl_site466]	7.43 ± 0.21
ATATATATGTTTTATAGTACACACATAAATGGACAT [XGTACX_site4538]	8.1 ± 0.49
ATAATGTTCCTATGATGTACTTATAATTATCATTTT [XGTACX_site4017]	8.07 ± 0.44
AAGAGGTTATTACATTCACATAACATCAATATACGT [GTGCAC_negctrl_site264]	7.62 ± 0.69
ATTAAAATAATATAAACACACATATACTTTTTTCTA [CACACA_site565]	7.55 ± 0.38
TATTGTTCGTTTAAGGTGCTATTGTTTGCAAAATAT [GTGCAC_site9412]	9.465 ± 0.021
TGGGAAAACCCCAGAAGTACGCTTAATATAAAAAAT [XGTACX_site697]	7.79 ± 0.54
TATTATAAATTAATTTTAAACTTTATTATTATGATA [GTGCAC_negctrl_site389]	7.48 ± 0.27
GTAATGTCGTCGTTTTGTACATATTTTTATAAAAAG [XGTACX_site2688]	8.18 ± 0.54
TTAAAATTATATCTGTGTACATAAATTGTGTAACTA [XGTACX_site1966]	7.79 ± 0.18
TATTAGTCGAATGATGTACACACATACAAAACATTT [CACACA_site9331]	7.82 ± 0.52
AAAAAAAAAAAGAACTCACACATAATAATGTATATG [CACACA_site4974]	7.26 ± 0.51
AAAGGAGACAGAATAAGAATAAATATTATACATATA [XGTACX_negctrl_site412]	7.3 ± 0.42
ATTTAAAAAAAAATGGCACACATTTTAATTTTATGT [CACACA_site1740]	7.88 ± 0.37
TTTTTAATGATCAGACGTACAGTTATGAAGAAATTT [XGTACX_site6394]	8.13 ± 0.52

Sequence	gcPBM binding intensity (ln)
TTGTGTCATATATTTTGTAATCAAAATAATTTTATT [TGCATGCA_negctrl_site307]	8.08 ± 0.41
TTTTTGTTTCGTTACGCATGCCAAAAGTAAAAATAT [TGCATGCA_site536]	8.2 ± 0.56
TATGCTATAATACTCTGTACTTACTAATTTAATAAT [XGTACX_site5926]	7.96 ± 0.22
ATAAAATAAATGAAAAATGTAAAATGAGAAAAAAAT [CACACA_negctrl_site1026]	8.09 ± 0.57
TATATATATATATGGGTGCATTTTTTTGTCCATGTA [GTGCAC_site9868]	10 ± 0.34
TACATATTTTTTATATGTACATATTTTTTATGTGTA [XGTACX_site442]	7.67 ± 0.18
TTTTATCTCATTCATCAAAATCACCGGAATCATATA [CACACA_negctrl_site357]	7.62 ± 0.49
TAATAAACAAATTCCAAAATAAATTAAAAGGAAAAT [CACACA_negctrl_site1404]	7.35 ± 0.59
AGGTATATATTACAAGTGCACTGTAAAATTAAAATT	10.7 ± 0.22
ATTTATTTATATTTAGTGCAATACTATTTTTAAATA [GTGCAC_site9886]	10.6 ± 0.64
ATTTTATCATAATAAAGTACAAAGATGCAAATAATA [XGTACX_site2270]	8.66 ± 0.085
TTTAAAACCCTAAAAAAAAAAAAAAAAAAAAAAAAA [CACACA_negctrl_site1212]	8.29 ± 1
GTTTGTATAGGTTCATGTACAAAAAAAAAAAAAAAA [XGTACX_site537]	8.27 ± 0.46
ATGCATAAAAGAAATACACACATAAATATGTAAATA [CACACA_site7087]	7.61 ± 0.42
ATTCATATGTGACACACACACACACGCATAAAAAAA [CACACA_site7515]	8.34 ± 0.39
TTAAAACATATTTTGAATTAATATATTTTAATATTA [XGTACX_negctrl_site148]	7.08 ± 0.43
TAGCGTACATTTCATTGTAATCATAAAAAATAAAGA [CACACA_negctrl_site447]	8.17 ± 0.085
TTTATTAGAACCGTACGTACATAGTTATTTTTTCAA [XGTACX_site8848]	7.69 ± 0.51
ACAAAAATATATATATGTACATATATCATCATAATA [XGTACX_site5850]	7.68 ± 0.45

Sequence	gcPBM binding intensity (ln)
AATTAAAAATATAAATGTACATATATGTAAAACTTT [XGTACX_site123]	7.86 ± 0.56
CCCATGCATTTTTGCACACACATATATATATAAATA [CACACA_site1430]	9.87 ± 0.26
TTAATCATAAAAGTCACACATAATAAGAAAAAGCTT [CACACA_site4616]	7.62 ± 0.73
AATATATGAATTAGAAGTACAAATAAATATTTATTT [XGTACX_site2062]	7.78 ± 0.64
AATACAATTTATAACACACACACAATAATACATATA [CACACA_site1252]	7.92 ± 0.35
GTATTTTTTTTAATATGTACATATAAAATATTTTAT [XGTACX_site8329]	8.28 ± 0.23
ATATAAGTTTATATATGTACATATATATATTATATA [XGTACX_site2068]	7.65 ± 0.35
AATTCATTTAAAAGTTGTACAAGCTTAATAAAAAAA [XGTACX_site6073]	8.14 ± 0.65
ATATACACATAAAGTAGTACACCTGAAATTTTTTTT [XGTACX_site2951]	8.13 ± 0.26
GAGGATATATTATATGTACACACATATATAACGGAT [CACACA_site8361]	8.13 ± 0.45
ATAATAAAAAAAAAATGTACATAAATCTAAAATCCT [XGTACX_site5823]	7.71 ± 0.54
ATATATTTAAATAAAAGTACGTAAAGGTATATTTAA [XGTACX_site8088]	7.91 ± 0.56
CCTCCCATTTTTACACGTACACATTTAAAATAGACT [XGTACX_site5640]	8.46 ± 0.52
TGAAGAAAATATTAATGTACATATTATATATATATA [XGTACX_site5497]	9.06 ± 0.16
TGTAGTCTGGAGAAAAGTACATAGTATCTGATAACC [XGTACX_site2018]	7.96 ± 0.54
GTGCATATATGATATACACACAATATAATAGTATGT [CACACA_site2460]	9.88 ± 0.73
AATATAATGTAATATACACACATATATTTCTCTTTT [CACACA_site5451]	7.48 ± 0.61
AAGAGTTTGAAGTTTGCACACTACGTTAAAAATAAA [CACACA_site3939]	8.56 ± 0.28
